# Data from US20250066451A1 (SWEDISH ORPHAN BIOVITRUM AB PUBL, published 2025).
# Positions count from the first letter of the chain named.
# T1: Human IL-1R-I-Fc (Creative BioMart cat. no. IL1RI-771H) (human, UniProt P14778 18-332, limits assumed)
# T1 construct: bought protein; also called hIL-1R-I-Fc; hIL-1RI-Fc
# T1 sequence (looked up): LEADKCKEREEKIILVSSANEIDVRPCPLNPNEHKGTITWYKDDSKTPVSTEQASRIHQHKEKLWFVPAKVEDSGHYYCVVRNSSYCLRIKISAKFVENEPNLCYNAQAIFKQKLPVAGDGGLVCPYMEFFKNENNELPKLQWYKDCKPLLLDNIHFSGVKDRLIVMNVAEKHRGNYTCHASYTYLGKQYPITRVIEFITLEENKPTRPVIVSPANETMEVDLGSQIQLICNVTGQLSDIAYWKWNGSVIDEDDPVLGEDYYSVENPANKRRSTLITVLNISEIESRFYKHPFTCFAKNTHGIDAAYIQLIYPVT
# T2: human IL-1R-I (human, UniProt P14778 18-332, limits assumed)
# T2 construct: bought recombinant protein; also called hIL-1R-I; hIL-1RI
# T2 sequence (looked up): T1 sequence (looked up)
# B1: Z15811-ABD (designed binder)
# chain: AQHDEALEVDAKYAKEVEEAQMEIFELPNLTRKQYTAFIRKLLDDPSQSSELLSEAKKLNDSQAPKVDYVLAEAKVLANRELDKYGVSDYYKNLINNAKTVEGVKALIDEILAALPYVPG
# notes: periplasmic extract, Z-ABD fusion
# B2: Z16007-ABD (designed binder)
# chain: B1 chain with E19I, E26S, L43F
# B3: Z16084-ABD (designed binder)
# chain: B1 chain with V17I, E19I, L43F
# B4: Z16102-ABD (designed binder)
# chain: B1 chain with E19T, F25Y, E26Q, L43F
# B5: Z16161-ABD (designed binder)
# chain: B1 chain with E19Y, F25Y, E26S, K33R
# B6: Z16165-ABD (designed binder)
# chain: B1 chain with V17I, E19V, F25Y, E26S, L43F
# B7: Z16122-ABD (designed binder)
# chain: B1 chain with V17A, E19D, Q21Y, F25Y, E26S, K33R
# B8: Z16173-ABD (designed binder)
# chain: B1 chain with V17I, E19A, Q21Y, M22A, F25Y, E26Q
# B9: Z16008-ABD (designed binder)
# chain: B1 chain with E19V, E26N, K33R
# B10: Z16164-ABD (designed binder)
# chain: B1 chain with Q21Y, F25Y, E26N
# B11: Z16121-ABD (designed binder)
# chain: B1 chain with E19D, Q21Y, M22F, F25Y, E26N
# B12: Z15999-ABD (designed binder)
# chain: B1 chain with E19I, Q21Y, E26H
# B13: Z16093-ABD (designed binder)
# chain: B1 chain with V17T, E26A, L43F
# B14: Z16155-ABD (designed binder)
# chain: B1 chain with V17T, E18W, E19Y, E26S
# B15: Z15927-ABD (designed binder)
# chain: B1 chain with V17I, E26Y
# B16: Z16089-ABD (designed binder)
# chain: B1 chain with V17I, E19S, Q21Y, M22Y, E26A
# B17: Z16135-ABD (designed binder)
# chain: B1 chain with E19L, M22H, E26Q, L43F
# B18: Z16143-ABD (designed binder)
# chain: B1 chain with V17I, E19A, E26R
# B19: Z16234-ABD (designed binder)
# chain: B1 chain with E19D, Q21Y, M22Y, F25Y, E26S
# B20: Z16219-ABD (designed binder)
# chain: B1 chain with V17I, E19H, M22L, E26S
# B21: Z15886-ABD (designed binder)
# chain: B1 chain with E19R, E26A
# B22: Z16116-ABD (designed binder)
# chain: B1 chain with E19A, E26G
# B23: Z15961-ABD (designed binder)
# chain: B1 chain with E19T, E26A, L43F
# B24: Z15929-ABD (designed binder)
# chain: B1 chain with V17T, E19R, E26A, K33R
# B25: Z15813-ABD (designed binder)
# chain: B1 chain with E18D, Q21Y, F25Y, E26R
# B26: Z15949-ABD (designed binder)
# chain: B1 chain with V17T, E19T, E26A
# B27: Z16127-ABD (designed binder)
# chain: B1 chain with V17I, E19I, E26G
# B28: Z15932-ABD (designed binder)
# chain: B1 chain with E26I
# B29: Z15960-ABD (designed binder)
# chain: B1 chain with V17T, E19A, E26A
# B30: Z16168-ABD (designed binder)
# chain: B1 chain with V17A, E18V, E19S, Q21Y, M22W, E26A, K33R
# B31: Z16169-ABD (designed binder)
# chain: B1 chain with V17T, E26Y, K33R
# B32: Z16097-ABD (designed binder)
# chain: B1 chain with V17T, E19R, E26S
# B33: Z16072-ABD (designed binder)
# chain: B1 chain with E19I
# B34: Z16207-ABD (designed binder)
# chain: B1 chain with F25Y, E26N
# B35: Z16003-ABD (designed binder)
# chain: B1 chain with E18Y, E19I, F25Y, E26G, L43F
# B36: Z16000-ABD (designed binder)
# chain: B1 chain with V17A, E18Y, E19R, E26A
# B37: Z16163-ABD (designed binder)
# chain: B1 chain with E19R, K33R
# B38: Z15978-ABD (designed binder)
# chain: B1 chain with E19A, E26N
# B39: Z15997-ABD (designed binder)
# chain: B1 chain with V17I, E26Q
# B40: Z16004-ABD (designed binder)
# chain: B1 chain with E19V, E26S
# B41: Z16141-ABD (designed binder)
# chain: B1 chain with E18V, E19Q, Q21Y, M22D, F25Y, E26G
# B42: Z16070-ABD (designed binder)
# chain: B1 chain with V17I, F25Y, E26R, L43F
# B43: Z16206-ABD (designed binder)
# chain: B1 chain with E26N, L43F
# B44: Z15975-ABD (designed binder)
# chain: B1 chain with E19T, E26V
# B45: Z16092-ABD (designed binder)
# chain: B1 chain with V17I, E19Q, F25Y, E26R
# B46: Z16117-ABD (designed binder)
# chain: B1 chain with V17I, E19K, M22F, E26A, L43F
# B47: Z16162-ABD (designed binder)
# chain: B1 chain with V17A, E19S, Q21Y, M22W, F25Y, E26H
# B48: Z16156-ABD (designed binder)
# chain: B1 chain with V17I, E19R, E26S
# B49: Z15996-ABD (designed binder)
# chain: B1 chain with E19S, E26N, L43F
# B50: Z16178-ABD (designed binder)
# chain: B1 chain with E26F, R40I, L43F
# B51: Z16106-ABD (designed binder)
# chain: B1 chain with E19D, E26K, L43F
# B52: Z15923-ABD (designed binder)
# chain: B1 chain with V17T, E18Y, E19Y, E26T, L43F
# B53: Z15987-ABD (designed binder)
# chain: B1 chain with F25Y, E26Y
# B54: Z15862-ABD (designed binder)
# chain: B1 chain with E19I, E26A
# B55: Z19170 (His6-Z) (designed binder)
# chain: MGSSHHHHHHLQVDAKYAKEVEEIQMEIFELPNLTRRQYTAFIRKLLDDPSQSSELLSEAKKLNDSQAPKVD
# B56: Z19180 (His6-Z) (designed binder)
# chain: B55 chain with E23I, E30H
# B57: Z19182 (His6-Z) (designed binder)
# chain: B55 chain with E23A, E30Q
# Target: T1, Human IL-1R-I-Fc (Creative BioMart cat. …)
# Experiment: ELISA, hIL-1R-I-Fc titration on Z-ABD
row,EC50 [nM],Binder
1,0.25,B1
2,0.22,B2
3,0.22,B3
4,0.28,B4
5,0.25,B5
6,0.22,B6
7,0.29,B7
8,0.36,B8
9,0.23,B9
10,0.68,B10
11,0.23,B11
12,0.24,B12
13,0.21,B13
14,0.29,B14
15,0.22,B15
16,0.24,B16
17,0.25,B17
18,0.21,B18
19,0.54,B19
20,0.24,B20
21,0.26,B21
22,0.21,B22
23,0.21,B23
24,0.24,B24
25,0.35,B25
26,0.25,B26
27,0.21,B27

row,EC50 [nM],Binder
1,0.23,B28
2,0.23,B29
3,0.28,B30
4,0.18,B31
5,0.2,B32
6,0.22,B33
7,0.22,B34
8,0.28,B35
9,0.24,B36
10,0.17,B37
11,0.48,B38
12,0.25,B39
13,0.25,B40
14,0.28,B41
15,0.23,B42
16,0.45,B43
17,0.24,B44
18,0.24,B45
19,0.21,B46
20,0.27,B47
21,0.24,B48
22,0.25,B49
23,0.24,B50
24,0.23,B51
25,0.24,B52
26,0.23,B53
27,0.21,B54

# Target: T2, human IL-1R-I
# Experiment: SPR; hIL-1R-I immobilized, His6-Z injected
Kd [nM],koff [s⁻¹],kon [M⁻¹ s⁻¹],Binder
0.2,0.0043,2.1e+07,B55
0.14,0.0031,2.2e+07,B56
0.26,–,–,B57
